Screen size: about 310,000 compounds; about 14,000 (4.5%) showed an effect of 50% or more. Effects have a minus sign here. Some of the results follow.
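Further: peak tail current of the secondary pulse compared with the same well before compound.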

Chain of human ether-à-go-go-related gene (hERG) potassium channel (Q12809 whole entry, looked up): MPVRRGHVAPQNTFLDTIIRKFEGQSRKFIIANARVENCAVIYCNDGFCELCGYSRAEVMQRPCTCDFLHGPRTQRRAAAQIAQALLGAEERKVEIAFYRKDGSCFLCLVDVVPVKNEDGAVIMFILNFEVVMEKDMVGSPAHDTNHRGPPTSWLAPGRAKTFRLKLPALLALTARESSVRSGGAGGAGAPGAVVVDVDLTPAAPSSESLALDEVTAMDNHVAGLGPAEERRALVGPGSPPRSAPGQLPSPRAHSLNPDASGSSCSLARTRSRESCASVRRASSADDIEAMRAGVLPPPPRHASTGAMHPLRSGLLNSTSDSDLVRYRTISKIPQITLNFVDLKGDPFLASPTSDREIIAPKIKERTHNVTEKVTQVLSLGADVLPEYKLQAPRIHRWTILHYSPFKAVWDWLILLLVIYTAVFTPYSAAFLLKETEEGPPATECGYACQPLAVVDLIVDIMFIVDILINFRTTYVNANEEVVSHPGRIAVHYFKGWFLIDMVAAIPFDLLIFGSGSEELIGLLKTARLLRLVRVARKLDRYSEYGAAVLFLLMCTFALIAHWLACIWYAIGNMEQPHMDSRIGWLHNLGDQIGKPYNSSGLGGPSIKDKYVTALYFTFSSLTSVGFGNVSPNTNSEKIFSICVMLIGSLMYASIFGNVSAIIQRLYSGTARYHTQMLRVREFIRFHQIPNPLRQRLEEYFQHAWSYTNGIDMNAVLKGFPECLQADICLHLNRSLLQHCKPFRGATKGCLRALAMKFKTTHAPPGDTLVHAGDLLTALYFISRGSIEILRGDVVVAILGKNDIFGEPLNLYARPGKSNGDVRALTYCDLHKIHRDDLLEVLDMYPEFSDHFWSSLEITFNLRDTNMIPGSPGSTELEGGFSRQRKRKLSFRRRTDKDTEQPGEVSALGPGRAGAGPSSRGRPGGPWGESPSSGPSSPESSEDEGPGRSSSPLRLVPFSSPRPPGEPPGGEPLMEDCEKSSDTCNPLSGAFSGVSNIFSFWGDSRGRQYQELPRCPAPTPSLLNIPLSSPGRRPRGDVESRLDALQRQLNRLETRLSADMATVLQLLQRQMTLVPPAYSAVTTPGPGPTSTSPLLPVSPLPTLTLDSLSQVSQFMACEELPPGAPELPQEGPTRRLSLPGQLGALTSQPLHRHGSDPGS

The test has as its target human ether-à-go-go-related gene (hERG) potassium channel (human, UniProt Q12809). The test is described as follows: primary screen, population patch clamp on CHO cells stably expressing hERG.
Take `Nc1cc(Cl)ccc1N1CCCCC1`: the “hERG current change (%, negative = inhibition) at 10uM” value is on record as 11.3%. As for `Cc1cccc(/N=C/c2c(O)[nH]c3ccccc23)n1`, the figure is 2.75%; as for `Cc1cnc(NC(=O)NCC2CCCC(CNC(=O)Nc3ncc(C)s3)C2)s1` (centres unmarked), 15.5%. As for `Cn1c(N)c(C(=O)CSc2ccccn2)c(=O)n(C)c1=O`, the figure is 9.55%; as for `COc1ccc(C(=O)N2CCN(C(=O)CC(C)C)CC2)cc1OC`, 3.82%. Consider `Cc1ccc(/C=N/n2c(C)nnc2C)o1`, for which the “hERG current change (%, negative = inhibition) at 10uM” value was 0.719%. In the case of `CCOC(=O)c1c(N)n(CCCOC(=O)c2ccco2)c2nc3ccccc3nc12`, the “hERG current change (%, negative = inhibition) at 10uM” value is -11.9%. As for `O=C(CN1C(=O)NC2(CCCC2)C1=O)OCCOc1ccccc1Cl`, the figure is -1.92%. For `Brc1ccsc1-c1csc(-c2ccncc2)n1`, the “hERG current change (%, negative = inhibition) at 10uM” value is on record as 17.3%. As for `Oc1ccc(-c2nnc(-c3ccccc3)c(-c3ccccc3)n2)cc1`, the figure is 10.9%; as for `Cc1cc(Nc2nc3c(c(=O)n(C)c(=O)n3C)n2C)n(-c2ccc(Cl)cc2)n1`, 1.53%. Regarding `CC(C)N1CCN(Cc2ccc3c(c2)Cc2ccccc2-3)CC1CCO` (centres unmarked), the “hERG current change (%, negative = inhibition) at 10uM” value is given as -52.4%. As for `CN1CCC(N(C)Cc2cccnc2)CC1`, the figure is -5.19%. `CC(=O)N1CCC(C(=O)N2CCN(S(=O)(=O)c3ccc(F)cc3)CC2)CC1`: the “hERG current change (%, negative = inhibition) at 10uM” value is listed as -1.33%. As for `COc1ccc(-c2csc(NC(=O)COC(=O)Cc3ccccc3)n2)cc1OC`, the figure is 18.7%; as for `Cc1ccccc1N1C(=O)CC2(CCCC2)CC1=O`, 16.1%; as for `COC(=O)c1cc(C#N)c(OC(C)C)nc1C`, -6.52%. As to `O=C1CC(N2CCN(Cc3ccc4c(c3)OCO4)CC2)C(=O)N1c1cccc2ccccc12` (centres unmarked), the “hERG current change (%, negative = inhibition) at 10uM” value is recorded as -4.77%.

In the case of `COc1ccc(NS(=O)(=O)c2ccc3c(c2)[C@H]2C=CC[C@H]2[C@@H](c2ccc(C(=O)O)cc2)N3)cc1`, the “hERG current change (%, negative = inhibition) at 10uM” value amounted to 13.2%. Regarding `Cc1ccc(NS(=O)(=O)c2ccc3[nH]c(=O)oc3c2)c(C)c1`, the “hERG current change (%, negative = inhibition) at 10uM” value came out at 6.1%. Consider `Cc1cc(C)n(C(=O)CNc2ccc(C)c(C)c2)n1`, for which the “hERG current change (%, negative = inhibition) at 10uM” value worked out at 10.1%. As for `O=C(N/N=C/c1ccc2c(c1)OCO2)C1COc2ccccc2O1` (centres unmarked), the figure is 9.9%; as for `Cn1c(C(=O)Nc2ccc3c(c2)OCCO3)cc2c(=O)n(C)c3ccccc3c21`, 3.66%.

In the case of `COc1ccc(N(C(C)C(=O)NCc2ccco2)S(C)(=O)=O)cc1` (centres unmarked), the “hERG current change (%, negative = inhibition) at 10uM” value is on record as 13.9%. As for `CC1(C)CC(=O)c2c(n(-c3cccc4ccccc34)ccc2=O)C1`, the figure is 15.1%; as for `COC(=O)C1=C(C)N(Cc2ccc(OC)c(OC)c2)C(=O)C1`, 10.7%. As for `CCOC(=O)C(C(C)=O)C(c1ccc(OC)cc1)C(C(C)=O)C(=O)OCC` (centres unmarked), the figure is -4.44%. Turning to `COC(=O)c1sc(-c2ccccc2)cc1NC(=O)c1ccc(F)cc1`, the “hERG current change (%, negative = inhibition) at 10uM” value was 1.34%.

As to `CCCCCNC(=O)c1cc(S(=O)(=O)N2CCCCC2)ccc1F`, the “hERG current change (%, negative = inhibition) at 10uM” value is -11.7%. As to `CCOC(=O)/C(=N\Nc1ccccc1)c1csc(Nc2ccc(C)cc2)n1`, the “hERG current change (%, negative = inhibition) at 10uM” value was 9.16%. Regarding `Cc1ccc(C(=O)Nc2c(-c3cccs3)nc3cc(C)ccn23)cc1`, the “hERG current change (%, negative = inhibition) at 10uM” value was found to be 11.4%. As to `COc1ccc2nc(-c3ccc(Cl)cc3)cc(C(=O)O)c2c1`, the “hERG current change (%, negative = inhibition) at 10uM” value amounted to 16.4%. As for `COc1ccc2c(CC(=O)N[C@@H](Cc3c[nH]c4ccccc34)C(=O)O)cc(=O)oc2c1`, the figure is 48.7%; as for `CCCCOC(=O)c1cccc(NC(=O)CC)c1`, -4.59%; as for `Cc1cc(/C=N/O)c(C)n1-c1ccc(Br)cc1`, -34.2%. As for `C=CCN(CC(=O)O)S(=O)(=O)c1ccccc1C(F)(F)F`, the figure is 13.8%; as for `CCC(C)NC(=O)Cn1nc(C(F)(F)F)c2c1CCCC2` (centres unmarked), 7.08%; as for `C1=C(CCNCC2CCCCC2)CCCC1.Cl`, -13.3%.

`Oc1c(Br)cc(/C=N/n2c(-c3ccccc3)n[nH]c2=S)cc1Br`: the “hERG current change (%, negative = inhibition) at 10uM” value is reported as 17.1%.

Regarding `O=[N+]([O-])c1ccc(NCCNc2ccc(Cl)nn2)cc1`, the “hERG current change (%, negative = inhibition) at 10uM” value is given as -45.6%. With `CCOC(=O)Cn1c(=O)oc2cc(S(=O)(=O)NCc3ccccn3)ccc21`, the “hERG current change (%, negative = inhibition) at 10uM” value is reported as -9.44%. Consider `COc1ccc2[nH]c(=O)c(CN(C(=O)C3CCCO3)c3ccc(C)cc3)cc2c1` (centres unmarked), for which the “hERG current change (%, negative = inhibition) at 10uM” value was -21.2%. As for `O=C(NCCc1ccc(Cl)cc1)C1=CC=CN2CCS(=O)(=O)N=C12`, the figure is -9.31%; as for `CN(C)Cc1cnc2ccc(Cl)cn12`, -3.32%. As for `Nc1nnc(SCC(=O)Nc2ccc(S(=O)(=O)N3CCOCC3)cc2)s1`, the figure is -9.26%; as for `Cc1ccc(-c2noc(C3CCCN(C(=O)c4cccc([N+](=O)[O-])c4)C3)n2)o1` (centres unmarked), -65%. `O=[N+]([O-])c1ccccc1S(=O)(=O)NCCC1=CCCCC1`: the “hERG current change (%, negative = inhibition) at 10uM” value is -11.5%.

For the origin of these results see publication PMC4336329 (PLoS ONE, 2015).
